Measured values as given in patent US20180319865A1, “Identification of Novel Small Molecule Beta2 Integrin Agonists” (Rush University Medical Center, priority 2016, published 2018).
At least one compound was matched to its structure with a doubt left.

Tests used:
[1] = biological target: T1, integrin CD11c/CD18 (Homo sapiens, UniProt P20702); assay: HTS cell adhesion assay, K562 CD11c/CD18 cells on immobilized fibrinogen; format: cell-based; conditions: Table 3, adhesion to fibrinogen, dose-response
T1 construct: expressed in transfected cells; host or cells: K562 (ATCC)
Description: (§1) K562 cells stably expressing CD11c/CD18 (K562 CD11c/CD18) were generated similarly. Mutant CD11bE320A has been described previously. K562 cells stably transfected with mutant integrin CD11bE320A/CD18 (K562 E320A) were generated according to literature protocols. All cell lines were maintained in Iscove's Modified Dulbecco's Medium (IMDM) supplemented with 10% heat-inactivated fetal bovine serum, 50 IU/mL penicillin and streptomycin and 0.5 mg/mL G418.
(§2) Cell adhesion assays with immobilized ligands were performed using the general protocol previously described and as illustrated in FIG. 1 [33]. Assays with all different K562 cell lines (K562, K562 CD11b/CD18, K562 CD11c/CD18 and K562 E320A) were performed in an identical fashion. Briefly, 384-well microplates (Corning 3700) were coated with 15 μg/mL fibrinogen (Fg) ligand in PBS^++ overnight at 4° C. At the same time, anti-CD18 (IB4) mAb was also coated. Subsequently, the coated wells were washed with 1% nonfat milk in TBS at room temperature for 1 hour. Next, the wells were washed 3 times with TBS, and the coated microplates were used in the HTS assays.
(§3) K562 CD11b/CD18, K562 CD11bE320A/CD18 and K562 CD11c/CD18 cells were washed with TBS, and cells were transferred to the Fg-coated wells of microplates in the assay buffer (Ca^2+ and Mg^2+ for physiological condition, Mn^2+ as the Positive control). A 1 μL aliquot of the compounds were transferred to each washed well with multichannel pipet from the 384-well plates.
(§4) The assay plates were incubated at 37° C. in the presence of small-molecule compounds for 30 min. To dislodge the non-adherent cell, the assay plates were gently inverted and kept in inverted position for 20 min at room temperature.
(§5) The cells were fixed with 37% formaldehyde in a small volume and the plates were kept inverted for 1 h. Upon the fixation, the solutions in the well were discarded. Next, the cells were fluorescently labeled with DAPI (0.5 μM final in TBS with 0.1% Triton X-100) and the quantitated with “Opera High Content Screening System” (Perkin Elmer).
Cell-adhesion under positive and negative control conditions was used to define the activity scale; signal corresponding to the number of non-small molecule treated cells adherent in activating buffer condition (in the presence of Mn^2+ ions as agonist, PC) was considered maximum (100% binding) and the signal corresponding to the number of non-small molecule treated cells adherent in basal buffer condition (in the presence of 1 mM each of Ca^2+ and Mg^2+, NC) was considered minimum (0% binding). […]
The compounds were diluted in DMSO by the final concentration 10 μM, 5 μM, 2.5 μM, 1.25 μM and 0.625 μM and stocked as sealed in 384-well plates at −80° C.

[2] = biological target: T2, wild-type integrin CD11b/CD18 (Homo sapiens, UniProt P11215); assay: HTS cell adhesion assay, K562 CD11b/CD18 cells on immobilized fibrinogen; format: cell-based
T2 construct: expressed in transfected cells; host or cells: K562 (ATCC)
Description: as §1, with “Mutant CD11bE320A has been described previously.” left out
as §2, §3, §4, §5
Cell-adhesion under positive and negative control conditions was used to define the activity scale; signal corresponding to the number of non-small molecule treated cells adherent in activating buffer condition (in the presence of Mn^2+ ions as agonist, PC) was considered maximum (100% binding) and the signal corresponding to the number of non-small molecule treated cells adherent in basal buffer condition (in the presence of 1 mM each of Ca^2+ and Mg^2+, NC) was considered minimum (0% binding).

[3] = Table 3, adhesion to fibrinogen, 5-point dose-response

Structure (SMILES)	EC50 [1]	EC50 [2, 3]	EC50 ([2]; Table 4, adhesion to fibrinogen, dose-response)
Cc1cc(/C=C2\C(=O)NC(=O)N(c3ccc(Cl)cc3)C2=O)c(C)n1-c1sc2c(c1C#N)CCCC2 [Compound 1418314]	3.44 µM	4.49 µM	
Cc1cc(C=C2C(=O)N(C)C(=S)N(C)C2=O)c(C)n1C1CCCCC1 [Compound 1347165]	8.48 µM	4.6 µM	
CCC(C)N1C(=O)/C(=C/c2ccc3c(c2)CCN3CCCCl)C(=O)NC1=S (stereo not drawn) [Compound 6513263]	3.33 µM	3.42 µM	
CCOC(=O)c1c(-n2c(C)cc(C=C3C(=O)NC(=S)NC3=O)c2C)sc2c1CCCC2 [Compound 1494229]	2.56 µM	6.72 µM	2.56 µM
CCCCN1C(=O)/C(=C/c2ccc(N3CCCCCC3)cc2)C(=O)NC1=S [Compound 2067755]	4.06 µM	4.39 µM	
O=C1NC(=O)N(c2ccc(F)cc2)C(=O)/C1=C/c1ccc2c(c1)CCCN2Cc1ccccc1 [Compound 1997460]	1.64 µM	1.87 µM	
O=C1NC(=S)N(C2CC2)C(=O)/C1=C/c1ccc2c(c1)CCN2CCCCl [Compound 1993471]	4.38 µM	3.07 µM	
